# The source gives no read counts; variants with many changes may rest on few reads.
# B1: LINE1-mini (parent)
# chain: GGCAGAGCUCAACACAGCGUGGCAAAGUGGCUGUGGCUAGACUGCC
# Variants of: B1
# Test: self-cleavage, relative activity (ratio to wild type); higher = more cleavage; in vitro, sequencing; the parent is a self-cleaving ribozyme
row,Variant,self-cleavage
1,GGCAGGGCUCAACAGAGCGAGGCAAAGUGGCUGGGGCUAUACUGUC,0
2,GGCAGGGCUCAACAUAGCGUGGCAAAGUGGCUGUGGUCAGACUGCC,0.1
3,GGCAGGGCUCAACAUAGCGUGGCAAAGUGGCUGUGGCUAGACUGCG,0.03
4,GGCAGGGCUCAACAUACCGUGGCAAAGUGGCUGUGGCUAGACUGCC,0.32
5,GGCAGGGCUCAACAUAGCGUGGCAAAGUCGCUGUGCCUAGACUGCC,0.27
6,GGCAGGGCUCAACACAGAGUGGAAAAGUGGCUGUGGCUAGACUGCC,0.16
7,GGCAGGGCUCAACACAGAGUGGCAAAGUGGCAGUGGAUAGACUCCC,0.02
8,GGCAGGGCUCAACACAGGUUGGCAAAGUGACUGUGGCUAAACUGCC,0.07
9,GGCAGGGCUCAACACAGGGUGACAAAGUGGCUGUGGCUAGACUGCC,0.04
10,GGCAGGGCUCAACACAGGGUGUCAAAGGGGCUGUGGCUAAACUGCC,0.07
11,GGCAGGGCUCAACACAGGGUGGCAAAGUGCCUGUGGCUAGACUGCC,0.05
12,GGCAGGGCUCAACACAGUGUGGCAAAGUCGCAGUGCCUAGACUGCC,0.03
13,GGCAGGGCUCAACACAGCGUGGAAAAGAGUUUUUGGCUAGUCUGCG,0.03
14,GGCAGGGCUCAACACAGCGUGGGAUAGUGGCUGUGGCUAGACUGCC,0.02
15,GGCAGGGCUCAACACAGCGUGGGAAAGUGGCUGUGGCUAUACUGCC,0.04
16,GGCAGGGCUCAACACAGCGUGGCAAAGUGGUUGUGGCUAGAAUGCC,0.03
17,GGCAGGACUCAACAGAGCGUCGCAAAGUGGCGGUGGCUAGACUGCC,0.04
18,GGCAGGACUCAACACAGCGUGGCAAAGUGGCUGUGGUUAGACUACC,0.03
19,GGCAGGACUCAACACAGCCUGGCAAAAUGGCUGUGGCUAGACUGCC,0.14
20,GGCAGGACUCAACACAGCCUGGCAAAGUCUGUCCGGCUAGACUACC,0.04
21,GGCAGGACACAACACAGCGUGGCAAAGGGGCUGUGGCUAGACUUCA,0.04
22,GGCAGGCCUCACCACAGCGUGACAAAGCGUCUGUGGUUAGACUGCC,0.01
23,GGCAGGCCUCAACACAGCGUGGCCAAGUGGCUGUGGAUAGACUGCC,0.08

row,Variant,self-cleavage
1,GGCAGGCCUCAACACAGGGUGGCAAAGUGGCAGUGGCUAGACACCC,0.01
2,GGCAGGCCUCAACACAGCGUGGCAAAGUGGCUGUGGCGAGACUGCC,0.03
3,GGCAGGGCUCAACACAAAGUGGCAAAGUGGCUGUGGCUAGACUGCC,0.14
4,GGCAGGGCUCAACACACCGUGGCAAAGUGGCUGUGGCUAGCCUGCA,0.1
5,GGCAGGGCUCAACACACCGUGGGAAAGUGGCUGUGACUAGACUGCC,0.02
6,GGCAGGGCUCAACACACCGUGGCAAAGUGGCUGUGGCUAGACUUCC,0.05
7,GGCAGGGCUCAACACACCGUGGCAAAGUGGCGGUGGCUAGACUGCC,0.02
8,GGCAGGGCUCAACACAUCGUGGCAAAGUGGCUGUGGCUAGAUUGCC,0.04
9,GGCAGGGCUCAACACAGCCUGGGAAAGUGGCUGUGACUAGACUGCC,0.01
10,GGCAGGGCUCAACACAGCCUGGCAAAGUGGGUGUGGCUAGACUGCC,0.01
11,GGCAGGGCUCAACACAGCUUGGCUAAGUGGCGGUGGCUAGACUGCC,0.02
12,GGCAGGGCUCAACACAGCUUGGCAAAGUGGCUGUGGCUGGACUGCC,0.02
13,GGCAGGGCUCAACACAGCUUGGCAAAGUGGGUGUGGCUAGACUGCC,0.02
14,GGCAGGGCUCAACACAGCUGGGCAAAGUGGCUGUGUCUAGACUGCC,0.03
15,GGCAGGGCUCAACACAGCGUAGCAAAGUGGCUGUGGCUAGACUUCC,0.21
16,GGCAGGGCUCAACACAGCGUCGCAAAGUGGCUGAGGCUAAACUGCC,0.03
17,GGCAGGGCUCAACACAGCGUUGCAAAGUGGCUGUGGAUAGACUGCC,0.12
18,GGCAGGGCUCAACACAGCGUUGCAAAGUGGCUGUGGAGAGACUGCC,0.02
19,GGCAGGGCUCAACACAGCGUUGCAAAGUGGCUGUGGCUAGACGGCC,0.94
20,GGCAGGGCUCAACACAGCGUGACAAAGUGGCUGUGGCUCGACUGCC,0.31
21,GGCAGGGCUCAACACAGCGUGACAAAGUGGCUGUGGCUGGACUGCC,0.02
22,GGCAGGGCUCAACACAGCGUGACAAAGUGGCUGUGGCUAGACUGUC,0.22
23,GGCAGGGCUCAACACAGCGUGACAAAGUGGCUGCGCCUAGCCUGAC,0

row,Variant,self-cleavage
1,GGCAGGGCUCAACACAGCGUGUCAAGGUGGCUGUGGCUAGACUGCC,0.05
2,GGCAGGGCUCAACACAGCGUGUCAAAGUGGCUGUGGCUAGAAUGCC,0.11
3,GGCAGGGCUCAACACAGCGUGGCAAACUGGCCGUCGCUAGACUGCC,0.02
4,GGCAGGGCUCAACACAGCGUGGCAAAUUGGGUGUGGCUAGACUGCC,0.01
5,GGCAGGGCUCAACACAGCGUGGCAAAUUGGUUGUGGCUAGACUGCC,0.04
6,GGCAGGGCUCAACACAGCGUGGCAAAUUGGCUUGGGCUAGACUGCC,0.02
7,GGCAGGGCUCAACACAGCGUGGCAAAGUCACUGUGGCUAGACUGCC,0.07
8,GGCAGGGCUCAACACAGCGUGGCAAAGUUGCUGUUGUUAGACUGCC,0.01
9,GGCAGGGCUCAACACAGCGUGGCAAAGUUGCUGUGGCUAGACUCCC,0.14
10,GGCAGGGCUCAACACAGCGUGGCAAAGUGACUGUGGAUAAACUGCC,0.13
11,GGCAGGGCUCAACACAGCGUGGCAAAGUGCCUGUUGCUAGACUGCC,0.04
12,GGCAGGGCUCAACACAGCGUGGCAAAGUGGCUAUGGCUAGAAUACC,0.14
13,GGCAGGGCUCAACACAGCGUGGCAAAGUGGCUCUGGCUAGACUGUC,0.02
14,GGCAGGGCUCAACACAGCGUGGCAAAGUGGCUGUGAAUAGACUGCC,0.08
15,GGCAGGGCUCAACACAGCGUGGCAAAGUGGCUGUGACUAUACUGCC,0
16,GGCAGGGCUCAACACAGCGUGGCAAAGUGGCUGUGCGUAGACUGCC,0.03
17,GGCAGGGCACAACACAGCGUGGCAAAGUGGCUGUGGCUAGAAUGCC,0.02
18,GGCAGGGCACAACACAGCCUGGCAAAGUGGCUGUGGCUAGACUGCC,0.11
19,GGCAGGGCCCAACACAGCGUGGCAAAGUGGCAGUGGCUAGACUGCC,0.01
20,GGCAGGGCGCAACACAGCGUGGCAAAGUGGCUGUGGCUAGAGUGCC,0.06
21,GGCAGGGCUCAACACAGCGAGGCAAAGUGGCUGUGGGUAGACUGCC,0.01
22,GGCAGGGCUCAACACAGCGAGGCAAACUGGCUGUGGCUAGACUGCC,0.11
23,GGCAGGGCUCAACACAGCGCGGCAACAUGGCUGUGGCUAGACUGCA,0.01

row,Variant,self-cleavage
1,GGCAGGGCUCAACACAGCGCGGCAAAGUGGCUGUGGAUAGACUGCC,0.03
2,GGCAGGGCUCAACACAGCGCGACAAAGUGGCUAUGGCUAGACUGCC,0.03
3,GGCAGGGCUCAACACAGCGCGGCAAAAUGGCUGUGGCUAGACUGCC,0.04
4,GGCAGGGCUCAACACAGCGCGGCAAAGUGGCUGUGGCUAUACUGCC,0.05
5,GGCAGGGCUCAACACAGCGGGGCAAAGUGGCUGUGGCUAGCAUGCC,0.01
6,GGCAGGGCUCAACACAGCGUGGCAAAGUGGCAGUGGGUAGACUCCC,0.01
7,GGCAGGGCUCAACACAGCGUGGCAAAGUGGCCGUGGCUAAACUGCC,0.01
8,GGCAGGGCUCAACACAGCGUGGCAAAGUGGCGGUGGCUCGACUGCC,0.09
9,GGCAGGGCUCAACACAGCGUGGCAAAGUGGCGGUGUCUAGACUGCC,0.03
10,GGCAGGGCUCAACACAGCGUGGCAAAGUGGCUGAGCUUAGACUGCC,0.01
11,GGCAGGGCUCAACACAGCGUGGCAAAGUGGCUGUGGCCAGCCUGCC,0.02
12,GGCAGGGCUCAACACAGCGUGGCAAAGUGGCUGUGGCCAGUCUGCC,0.06
13,GGCAGUGCUCCACUCAGCGUGGCUAAGUGGCUGUGACUAUACUGCC,0
14,GGCAGUGCUCCACACAGCGUGGCAAAGUGGCUGUGGAUAGACUGCC,0.01
15,GGCAGUGCUCCACACAGCGUGGCAAAGUGGCUGUGGCUAGACAGCC,0.03
16,GGCAGUGCUCGACACAGCGUGGCAAGGUGGCUGUGGCGAGACUUCC,0.02
17,GGCAGUGCUCGACACAGCGUGGCAAAGUGGCUGUGGCCAGACUGCC,0.02
18,GGCAGUGCUCUAAACAGCGUGGCCAAGUGGCUUUGGCAAGACUGCC,0
19,GGCAGUGCUCUACACAGUUCGGCAAAGUGGCUGUGUCUAGACUGCC,0.03
20,GGCAGUGCUCUACACAGCGUGGCAAAGUGGAUGUGGCUAGGCUGCC,0.01
21,GGCAGUGCUCACCACAGGGCGGCAAAGUGGCUGUGGCUAGACUGCC,0.02
22,GGCAGUGCUCACCACAGUGUGGCAAAGUGGAUGUGGCUAGACUGCC,0.01
23,GGCAGUGCUCACCACAGCGUGGCAAAGUGGCUGUGGCUAGAGUGCG,0.01

row,Variant,self-cleavage
1,GGCAGUGCUCACCACAGCGUGGCAAAGUGGCUGUGGCUAGACUGCA,0.01
2,GGCAGUGCUCACCACAGCGUGGCAAAGUGAGUGUGGCUAGACUGGC,0
3,GGCAGUGCUCAGCACAGCGUGGCUAAGUGGCUGUGGCUCGACUGCC,0.06
4,GGCAGUGCUCAGCACAGCCUGGCAAGGCGGCUGUGGCUAGACUGCA,0
5,GGCAGUGCUCAGCACAGCCCGGCCAAGUGGCUGUGGGUAGACUGCC,0.01
6,GGCAGUGCUCAGCACAGCGUGGCAAAGUGGCUUUGGCUAGACUGCC,0.2
7,GGCAGUGCUCAGCACAGCGGGGCAAAGUGGCUGUGGCUAUGCUGCC,0.05
8,GGCAGUGCUCAGCACAGCGUGGCAAAGUGGCAGUGGCUAGACUGCC,0.11
9,GGCAGUGCUCAUCAGAGCGUGGCAAAGUGGCUGUGGCUAGACUGCC,0.01
10,GGCAGUGCUCAUCACAGCGUGGCAAAGUGGCUGUGGGUAGGCUGCC,0.01
11,GGCAGUGCUCAUCACAGCAUGGCAAAGUGGCUGUGGCUAGACUUCC,0.1
12,GGCAGUGCUCAACCCAGCGUGGCAAAGUGUCUGUGGCUAGACUGCC,0.04
13,GGCAGUGCUCAACGCAGGGUGGCCGAGUGGCUGUGGCUAGACUGCC,0.01
14,GGCAGUGCUCAACGCAGCGUGGCAAAUUGGCUGUGGCUAGACUGCC,0.88
15,GGCAGUGCUCAACUGAGCGUGGCAAGGUGGCUGUGGCUAGCCUGCC,0.06
16,GGCAGUGCUCAACUCAGCGUGGCAAAAUGGCUGUGGCUAGCCUGCA,0.04
17,GGCAGUGCUCAACUCAGCGUGGCAAAGUGGCUCUGGCUAGACUGCC,0.13
18,GGCAGUGCUCAACACCGCGUGGCAAAGUGGCUGUGACUAGACUGCC,0.02
19,GGCAGUGCUCAACACGGCGUGGCAAAGUGGCUGUGGCUAGACUGAC,0.15
20,GGCAGUGCUCAACACUGUGUGGCAAAGUGGCUGUGGGAAGACUGCC,0.05

# — the RNAGym collection of RNA variant scans (doi:10.7554/elife.90254)
